# Laboratory results published in the supplement of paper PMC8728848.
# The other results are listed elsewhere or left out.
# B1: Gal 2 (Homo sapiens), P05162 (protein)
# chain: MTGELEVKNMDMKPGSTLKITGSIADGTDGFVINLGQGTDKLNLHFNPRFSESTIVCNSLDGSNWGQEQREDHLCFSPGSEVKFTVTFESDKFKVKLPDGHELTFPNRLGHSHLSYLSVRGGFNMSSFKLKE
# Key:
# Experiment in all cases: glycan array binding signal (z-score within array); higher = stronger binding
# Details in all cases: glycan notation: IUPAC condensed, linker removed
# [1] = target: Gal(a1-3)Gal(b1-4)[Fuc(a1-3)]GlcNAc
# In short: (§1)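 The Consortium for Functional Glycomics database supplied 3228 glycan arrays, of which those lacking an available protein sequence were dropped. The binding signal, a within-array Z-score, was averaged across arrays of the same protein sequence and across linkers. Negative scores can be read as non-binding.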
# [2] = target: Gal(a1-3)Gal(b1-4)[Fuc(a1-3)]GlcNAc(b1-2)Man(a1-3)[Gal(a1-3)Gal(b1-4)[Fuc(a1-3)]GlcNAc(b1-2)Man(a1-6)]Man(b1-4)GlcNAc(b1-4)GlcNAc
# In short: as §1
# Gal(a1-3)GalNAc = target: Gal(a1-3)GalNAc
# In short: as §1
# Gal(a1-3)GlcNAc = target: Gal(a1-3)GlcNAc
# In short: as §1
# [3] = target: Gal(a1-3)[Gal(a1-4)]Gal(b1-4)GlcNAc
# In short: as §1
# [4] = target: Gal(a1-4)Gal(b1-3)GlcNAc(b1-2)Man(a1-3)[Gal(a1-4)Gal(b1-3)GlcNAc(b1-2)Man(a1-6)]Man(b1-4)GlcNAc(b1-4)GlcNAc
# In short: as §1
# Gal(a1-4)Gal(b1-4)Gal = target: Gal(a1-4)Gal(b1-4)Gal
# In short: as §1
# Gal(a1-4)Gal(b1-4)GalNAc = target: Gal(a1-4)Gal(b1-4)GalNAc
# In short: as §1
# Gal(a1-4)Gal(b1-4)Glc = target: Gal(a1-4)Gal(b1-4)Glc
# In short: as §1
# Gal(a1-4)Gal(b1-4)GlcNAc = target: Gal(a1-4)Gal(b1-4)GlcNAc
# In short: as §1
# [5] = target: Gal(a1-4)Gal(b1-4)GlcNAc(b1-2)Man(a1-3)[Gal(a1-4)Gal(b1-4)GlcNAc(b1-2)Man(a1-6)]Man(b1-4)GlcNAc(b1-4)GlcNAc
# In short: as §1
# [6] = target: Gal(a1-4)Gal(b1-4)GlcNAc(b1-3)Gal(b1-4)Glc
# In short: as §1
# Gal(a1-4)GlcNAc = target: Gal(a1-4)GlcNAc
# In short: as §1
# Gal(a1-6)Glc = target: Gal(a1-6)Glc
# In short: as §1
# Gal(b1-2)Gal = target: Gal(b1-2)Gal
# In short: as §1
# Gal(b1-3)Gal = target: Gal(b1-3)Gal
# In short: as §1
# Gal(b1-3)Gal(b1-4)GlcNAc = target: Gal(b1-3)Gal(b1-4)GlcNAc
# In short: as §1
# Gal(b1-3)GalNAc = target: Gal(b1-3)GalNAc
# In short: as §1
# [7] = target: Gal(b1-3)GalNAc(a1-3)[Fuc(a1-2)]Gal(b1-4)Glc
# In short: as §1
# [8] = target: Gal(b1-3)GalNAc(a1-3)[Fuc(a1-2)]Gal(b1-4)GlcNAc
# In short: as §1
# Gal(b1-3)GalNAc(b1-3)Gal = target: Gal(b1-3)GalNAc(b1-3)Gal
# In short: as §1
# [9] = target: Gal(b1-3)GalNAc(b1-3)Gal(a1-4)Gal(b1-4)Glc
# In short: as §1
# [10] = target: Gal(b1-3)GalNAc(b1-3)Gal(b1-4)Glc
# In short: as §1
# [11] = target: Gal(b1-3)GalNAc(b1-3)Gal(b1-4)GlcNAc
# In short: as §1
# [12] = target: Gal(b1-3)GalNAc(b1-4)Gal(b1-4)Glc
# In short: as §1
# [13] = target: Gal(b1-3)GalNAc(b1-4)[Neu5Ac(a2-3)]Gal(b1-4)Glc
# In short: as §1
# Gal(b1-3)GlcNAc = target: Gal(b1-3)GlcNAc
# In short: as §1
# [14] = target: Gal(b1-3)GlcNAc(a1-3)Gal(b1-4)GlcNAc
# In short: as §1
# [15] = target: Gal(b1-3)GlcNAc(a1-6)Gal(b1-4)GlcNAc
# In short: as §1
# Gal(b1-3)GlcNAc(b1-2)Man = target: Gal(b1-3)GlcNAc(b1-2)Man
# In short: as §1
# [16] = target: Gal(b1-3)GlcNAc(b1-2)Man(a1-3)[Gal(b1-3)GlcNAc(b1-2)Man(a1-6)]Man(b1-4)GlcNAc(b1-4)GlcNAc
# In short: as §1
# [17] = target: Gal(b1-3)GlcNAc(b1-2)Man(a1-3)[Gal(b1-3)GlcNAc(b1-2)Man(a1-6)]Man(b1-4)GlcNAc(b1-4)[Fuc(a1-6)]GlcNAc
# In short: as §1
# [18] = target: Gal(b1-3)GlcNAc(b1-2)Man(a1-3)[GlcNAc(b1-4)][Gal(b1-3)GlcNAc(b1-2)Man(a1-6)]Man(b1-4)GlcNAc(b1-4)GlcNAc
# In short: as §1
# [19] = target: Gal(b1-3)GlcNAc(b1-2)[Gal(b1-3)GlcNAc(b1-6)]Man(a1-6)[Gal(b1-3)GlcNAc(b1-2)Man(a1-3)]Man(b1-4)GlcNAc(b1-4)GlcNAc
# In short: as §1
# [20] = target: Gal(b1-3)GlcNAc(b1-3)Gal(b1-3)GlcNAc
# In short: as §1
# [21] = target: Gal(b1-3)GlcNAc(b1-3)Gal(b1-4)Glc
# In short: as §1
# [22] = target: Gal(b1-3)GlcNAc(b1-3)Gal(b1-4)GlcNAc
# In short: as §1
# [23] = target: Gal(b1-3)GlcNAc(b1-3)Gal(b1-4)GlcNAc(b1-2)Man(a1-3)[Gal(b1-3)GlcNAc(b1-3)Gal(b1-4)GlcNAc(b1-2)Man(a1-6)]Man(b1-4)GlcNAc(b1-4)GlcNAc
# In short: as §1
# [24] = target: Gal(b1-3)GlcNAc(b1-3)Gal(b1-4)GlcNAc(b1-2)[Gal(b1-3)GlcNAc(b1-3)Gal(b1-4)GlcNAc(b1-6)]Man(a1-6)[Gal(b1-3)GlcNAc(b1-3)Gal(b1-4)GlcNAc(b1-2)Man(a1-3)]Man(b1-4)GlcNAc(b1-4)[Fuc(a1-6)]GlcNAc
# In short: as §1
# [25] = target: Gal(b1-3)GlcNAc(b1-3)Gal(b1-4)GlcNAc(b1-3)Gal(b1-4)GlcNAc(b1-2)[Gal(b1-3)GlcNAc(b1-3)Gal(b1-4)GlcNAc(b1-3)Gal(b1-4)GlcNAc(b1-6)]Man(a1-6)[Gal(b1-3)GlcNAc(b1-3)Gal(b1-4)GlcNAc(b1-3)Gal(b1-4)GlcNAc(b1-2)Man(a1-3)]Man(b1-4)GlcNAc(b1-4)[Fuc(a1-6)]GlcNAc
# In short: as §1
# [26] = target: Gal(b1-3)GlcNAc(b1-3)Gal(b1-4)GlcNAc(b1-6)[Gal(b1-3)GlcNAc(b1-3)]Gal(b1-4)Glc
# In short: as §1
# [27] = target: Gal(b1-3)GlcNAc(b1-3)Gal(b1-4)[Fuc(a1-3)]GlcNAc(b1-6)[Gal(b1-3)GlcNAc(b1-3)]Gal(b1-4)Glc
# In short: as §1
# [28] = target: Gal(b1-3)GlcNAc(b1-3)GalNAc
# In short: as §1
# [29] = target: Gal(b1-3)GlcNAc(b1-6)Gal(b1-4)GlcNAc
# In short: as §1
# [30] = target: Gal(b1-3)GlcNAc(b1-6)GalNAc
# In short: as §1
binder,measurement,setting,value
B1,glycan array binding signal (z-score),[1],-0.262
same,glycan array binding signal (z-score),[2],0.06
same,glycan array binding signal (z-score),Gal(a1-3)GalNAc,-0.216
same,glycan array binding signal (z-score),Gal(a1-3)GlcNAc,-0.449
same,glycan array binding signal (z-score),[3],-0.222
same,glycan array binding signal (z-score),[4],-0.299
same,glycan array binding signal (z-score),Gal(a1-4)Gal(b1-4)Gal,-0.524
same,glycan array binding signal (z-score),Gal(a1-4)Gal(b1-4)GalNAc,-0.503
same,glycan array binding signal (z-score),Gal(a1-4)Gal(b1-4)Glc,-0.169
same,glycan array binding signal (z-score),Gal(a1-4)Gal(b1-4)GlcNAc,-0.24
same,glycan array binding signal (z-score),[5],-0.153
same,glycan array binding signal (z-score),[6],-0.229
same,glycan array binding signal (z-score),Gal(a1-4)GlcNAc,-0.301
same,glycan array binding signal (z-score),Gal(a1-6)Glc,-0.278
same,glycan array binding signal (z-score),Gal(b1-2)Gal,-0.258
same,glycan array binding signal (z-score),Gal(b1-3)Gal,-0.268
same,glycan array binding signal (z-score),Gal(b1-3)Gal(b1-4)GlcNAc,0.258
same,glycan array binding signal (z-score),Gal(b1-3)GalNAc,0.061
same,glycan array binding signal (z-score),[7],-0.017
same,glycan array binding signal (z-score),[8],9.48
same,glycan array binding signal (z-score),Gal(b1-3)GalNAc(b1-3)Gal,-0.232
same,glycan array binding signal (z-score),[9],-0.29
same,glycan array binding signal (z-score),[10],1.48
same,glycan array binding signal (z-score),[11],1.91
same,glycan array binding signal (z-score),[12],-0.257
same,glycan array binding signal (z-score),[13],-0.263
same,glycan array binding signal (z-score),Gal(b1-3)GlcNAc,-0.073
same,glycan array binding signal (z-score),[14],-0.111
same,glycan array binding signal (z-score),[15],-0.303
same,glycan array binding signal (z-score),Gal(b1-3)GlcNAc(b1-2)Man,-0.167
same,glycan array binding signal (z-score),[16],-0.219
same,glycan array binding signal (z-score),[17],0.094
same,glycan array binding signal (z-score),[18],-0.221
same,glycan array binding signal (z-score),[19],-0.315
same,glycan array binding signal (z-score),[20],0.309
same,glycan array binding signal (z-score),[21],0.74
same,glycan array binding signal (z-score),[22],0.837
same,glycan array binding signal (z-score),[23],-0.151
same,glycan array binding signal (z-score),[24],0.217
same,glycan array binding signal (z-score),[25],-0.06
same,glycan array binding signal (z-score),[26],-0.173
same,glycan array binding signal (z-score),[27],-0.248
same,glycan array binding signal (z-score),[28],-0.181
same,glycan array binding signal (z-score),[29],-0.078
same,glycan array binding signal (z-score),[30],-0.181
